Laboratory results published in publication PMC4558515, “Exploring the role of MKK7 in excitotoxicity and cerebral ischemia: a novel pharmacological strategy against brain injury” (Cell Death & Disease, 2015).

System: MKK4 (P-MKK4/MKK4) in brain of MCAo rats
Details: 11 mg/kg 30 min before MCAO; n=3; two-way ANOVA interaction >0.05

Question: Which “basal activity of MKK4 (P-MKK4/MKK4), in words” value does the source give for “TAT-spacer-GADD45β60–86: cell-permeable MKK7 inhibitor peptide with spacer between TAT and GADD45β residues 60–86” here?
Answer: modest, but not significant, increase
